# Hit rate of the full screen: of about 310,000 compounds, about 14,000 (4.5%) showed an effect of 50% or more. The effect is printed as a negative number. Some of the results follow.
# Target: human ether-à-go-go-related gene (hERG) potassium channel (human, UniProt Q12809)
# Assay: primary screen, population patch clamp on CHO cells stably expressing hERG
# 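Also: peak tail current of the secondary pulse compared with the same well before compound.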
# human ether-à-go-go-related gene (hERG) potassium channel, sequence (Q12809 whole entry, looked up): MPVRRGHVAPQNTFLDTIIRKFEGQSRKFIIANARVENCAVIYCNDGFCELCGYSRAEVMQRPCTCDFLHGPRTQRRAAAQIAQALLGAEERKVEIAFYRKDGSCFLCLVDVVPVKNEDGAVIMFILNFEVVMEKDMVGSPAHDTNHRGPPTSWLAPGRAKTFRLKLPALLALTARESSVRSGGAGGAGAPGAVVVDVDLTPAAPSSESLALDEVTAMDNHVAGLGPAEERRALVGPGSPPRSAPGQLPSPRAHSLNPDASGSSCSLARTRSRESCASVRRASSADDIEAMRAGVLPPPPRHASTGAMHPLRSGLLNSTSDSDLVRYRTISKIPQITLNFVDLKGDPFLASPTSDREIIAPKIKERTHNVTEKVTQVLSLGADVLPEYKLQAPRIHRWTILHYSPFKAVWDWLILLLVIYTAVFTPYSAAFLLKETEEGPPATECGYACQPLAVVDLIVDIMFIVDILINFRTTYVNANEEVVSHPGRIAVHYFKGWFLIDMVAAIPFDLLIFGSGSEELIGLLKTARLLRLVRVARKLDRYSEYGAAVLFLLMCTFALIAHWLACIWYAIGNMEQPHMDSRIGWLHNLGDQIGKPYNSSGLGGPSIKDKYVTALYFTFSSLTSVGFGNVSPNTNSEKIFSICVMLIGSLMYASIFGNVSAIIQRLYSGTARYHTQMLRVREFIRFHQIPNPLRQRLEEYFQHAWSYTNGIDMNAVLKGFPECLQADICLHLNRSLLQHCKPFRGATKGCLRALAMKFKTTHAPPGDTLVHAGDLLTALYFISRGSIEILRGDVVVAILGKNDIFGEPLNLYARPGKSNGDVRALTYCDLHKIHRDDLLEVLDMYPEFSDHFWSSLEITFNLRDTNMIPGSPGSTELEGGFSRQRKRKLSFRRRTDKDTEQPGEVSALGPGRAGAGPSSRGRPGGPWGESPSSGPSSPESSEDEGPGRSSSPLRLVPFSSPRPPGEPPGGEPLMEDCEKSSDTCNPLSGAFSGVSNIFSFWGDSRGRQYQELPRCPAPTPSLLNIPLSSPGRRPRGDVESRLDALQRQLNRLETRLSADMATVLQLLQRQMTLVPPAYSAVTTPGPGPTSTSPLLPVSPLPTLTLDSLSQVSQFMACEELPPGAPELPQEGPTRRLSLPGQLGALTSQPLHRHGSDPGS
row,SMILES,"hERG current change (%, negative = inhibition) at 10uM"
1,C=CCn1c(C(O)c2ccccc2)nc2ccccc21 (stereo not shown),14.2%
2,O=C(NC1CC1)C1CCN(C(=O)c2ccccc2Cl)CC1,21.3%
3,CCn1c(Cn2nnc(-c3ccccc3)n2)nnc1SCC(=O)Nc1cccc(C(C)=O)c1,-33.8%
4,CCN(Cc1ccccc1)c1ccc(/C=C(\C#N)c2ccccn2)cc1,3.87%
5,O=C(Nc1ccc(N2CCN(C(=O)c3ccccc3)CC2)cc1)c1ccc(Br)o1,-75.9%
6,C/C(=C\c1ccccc1)C(=O)Nc1cc(C)on1,-1.27%
7,CCC1CCCCN1CCCNC(=O)c1cc2c(=O)oc3ccc(C)cc3c2s1 (stereo not shown),-69.5%
8,CC1(C(=O)N2CCN(C(=O)c3ccco3)CC2)CC1(Br)Br (stereo not shown),-3.81%
9,c1ccc(-c2oc3ncnc(NCCCN4CCOCC4)c3c2-c2ccccc2)cc1,-87.1%
10,C/C(=N\O)C(C)/[N+]([O-])=C/c1nc(C)c(C)n1O (stereo not shown),20.2%
11,CC(C)(C)Cc1nnc(NC(=O)Cc2cccs2)s1,25.7%
12,COc1ccc(-c2nn(CCC#N)cc2C(=O)Nc2ccccc2Br)cc1,20.4%
13,O=C(Oc1ccc(N(C(=O)c2ccncc2)S(=O)(=O)c2ccc(Cl)cc2)cc1)c1ccncc1,-11.5%
14,O=C1CC(c2ccccc2)CN1C(=O)c1ccccc1 (stereo not shown),17.7%
15,c1ccc(N2CC3CCc4ccccc4C3=N2)cc1 (stereo not shown),9.87%
16,O=C(CCC(=O)N(c1ccc(F)cc1)C(C(=O)NC1CCCC1)c1ccncc1)Nc1cccnc1 (stereo not shown),-9.14%
17,CCc1cc2c3c(c1)/C(=C1/SC(N)=NC1=O)C(=O)N3C(C)(C)C=C2C,14.1%
18,O=C(COC(=O)/C=C/C(=O)N1CCN(c2ccccc2)CC1)NCc1ccc(F)cc1,-8.17%
19,CCOC(=O)c1nn(-c2ccc(Cl)cc2)c(C)cc1=O,-0.00902%
20,CCCCC(=O)Nc1cccc(-c2ccc3nncn3n2)c1,-13.8%
21,S=P(NC1CCCCC1)(N1CC1)N1CC1,18.8%
22,CC(=O)Nc1ccc(NC(=O)C(C)OC(=O)c2cc(S(=O)(=O)N3CCOCC3)ccc2Cl)cc1 (stereo not shown),7.99%
23,CN1C(=O)C(CC(=O)Nc2ccc(F)cc2)N(Cc2cccs2)C1=S (stereo not shown),-17.7%
24,CCCCn1nc(C(=O)NCC(=O)Nc2c(C)cccc2C)c2ccccc2c1=O,-68.9%
25,CS(=O)(=O)c1ccc(C(=O)NC2CCCc3ccccc32)cc1 (stereo not shown),20%
26,CCOc1ccc2[nH]c(=S)[nH]c2c1,18.5%
27,COc1cc(CCC(=O)Nc2ccc(C)c(S(=O)(=O)N(C)C)c2)cc(OC)c1OC,0.188%
28,COC(=O)c1ccc(NC(=O)N(c2ccccc2)c2ccccc2)cc1,15.2%

row,SMILES,"hERG current change (%, negative = inhibition) at 10uM"
1,CCN(CC)C(=O)Cn1cc(S(=O)(=O)CC(=O)NCCc2ccc(OC)c(OC)c2)c2ccccc21,9.07%
2,Cn1nc(CC(=O)Nc2cccc3ncccc23)c2ccccc2c1=O,-19.7%
3,CC(=O)NC(CCCN1C(=O)c2ccccc2C1=O)c1nnn(C)n1 (stereo not shown),3.04%
4,O=C(C1=C[C@H](C2CCCCC2)C[C@H](OCCCCO)O1)N1CCN(Cc2ccccc2)CC1,-46.4%
5,Nn1c(SCC(=O)Nc2ccc(OC(F)F)cc2)nnc1-c1ccco1,-23.1%
6,CNc1cc(N2CCN(C)CC2)ccc1[N+](=O)[O-],-10.5%
7,COc1ccccc1-n1cnnc1SCC(=O)NC1CCCC1,-5.37%
8,COc1ccc(-n2c(SCC(=O)Nc3nccs3)nc3c(c2=O)SC(C)C3)cc1 (stereo not shown),-13.5%
9,COc1ccc(OC)c(N=c2ssnc2Cl)c1,-11.3%
10,CCOc1ccc(-n2c(SCC(=O)Nc3nccs3)nc3c(c2=O)SCC3)cc1,-5.18%
11,O=C(c1ccc(Cl)c(F)c1F)N1CCCC1,7.66%
12,CC(C)(C=O)C1=CC(=O)c2ccccc2C1=O,-5.06%
13,COc1ccc(N(C(=O)c2ccco2)C(C(=O)NC2CCCCC2)c2ccccc2)cc1 (stereo not shown),10.9%
14,O=C(CN(c1ccccc1Cl)S(=O)(=O)c1ccccc1)N/N=C/c1ccccc1C(=O)O,28.6%
15,Cc1noc(/C=C/c2ccco2)c1S(=O)(=O)N1CCC(C(=O)N(C)Cc2ccccc2)CC1,-4.68%
16,Cc1nc2ccc(NC(=O)c3ccco3)cc2s1,6.49%
17,CC1CCCCN1C(=O)COc1ccc(S(=O)(=O)N2CCCC2)cc1[N+](=O)[O-] (stereo not shown),-16.8%
18,CN1CCN(C(c2cccs2)c2nnnn2Cc2ccc(F)cc2)CC1.Cl (stereo not shown),-13.1%
19,O=C(C1CCN(S(=O)(=O)c2cccc3nsnc23)CC1)N1CCn2c1nc1ccccc12,-25.6%
20,NC(=O)C1CCN(c2nc(-c3ccc(F)cc3)cs2)CC1,3.46%
21,CCN(CC(=O)NCc1ccc(Cl)cc1)C(=O)COc1ccc(C)cc1C,-78.4%
22,CC(=O)Nc1ccc(C(=O)CN2C(=O)NC3(CCOc4ccccc43)C2=O)c(F)c1 (stereo not shown),-20.5%
23,C=CCNc1nc(C(=O)OCC(=O)NCc2cccc(Cl)c2)cs1,-7.11%
24,O=C(NCCS(=O)(=O)N1CCN(c2ccccc2)CC1)c1ccc(Br)o1,-5.85%
25,Cc1ccccc1OCC(=O)NNC(=O)c1cc(S(=O)(=O)N(C)C)ccc1N1CCCC1,0.0569%
26,Cc1cc(C)nc(SCc2cccc(C(=O)O)c2)n1,8.4%
27,N#C/C(=C\c1ccc(OCc2cccc(C(=O)O)c2)cc1)C(=O)NCc1ccco1,13.2%
